Experimental data from PMC6188873.
No constants are given. Whether binding was seen depends on the method and setting. Binding seen in cells or lysates may run through a third protein. Some entries that bind do so weakly or less than the wild type.

By UniProt entry, the sequences of proteins in these tests, tags left out.
UniProt Q96KP1: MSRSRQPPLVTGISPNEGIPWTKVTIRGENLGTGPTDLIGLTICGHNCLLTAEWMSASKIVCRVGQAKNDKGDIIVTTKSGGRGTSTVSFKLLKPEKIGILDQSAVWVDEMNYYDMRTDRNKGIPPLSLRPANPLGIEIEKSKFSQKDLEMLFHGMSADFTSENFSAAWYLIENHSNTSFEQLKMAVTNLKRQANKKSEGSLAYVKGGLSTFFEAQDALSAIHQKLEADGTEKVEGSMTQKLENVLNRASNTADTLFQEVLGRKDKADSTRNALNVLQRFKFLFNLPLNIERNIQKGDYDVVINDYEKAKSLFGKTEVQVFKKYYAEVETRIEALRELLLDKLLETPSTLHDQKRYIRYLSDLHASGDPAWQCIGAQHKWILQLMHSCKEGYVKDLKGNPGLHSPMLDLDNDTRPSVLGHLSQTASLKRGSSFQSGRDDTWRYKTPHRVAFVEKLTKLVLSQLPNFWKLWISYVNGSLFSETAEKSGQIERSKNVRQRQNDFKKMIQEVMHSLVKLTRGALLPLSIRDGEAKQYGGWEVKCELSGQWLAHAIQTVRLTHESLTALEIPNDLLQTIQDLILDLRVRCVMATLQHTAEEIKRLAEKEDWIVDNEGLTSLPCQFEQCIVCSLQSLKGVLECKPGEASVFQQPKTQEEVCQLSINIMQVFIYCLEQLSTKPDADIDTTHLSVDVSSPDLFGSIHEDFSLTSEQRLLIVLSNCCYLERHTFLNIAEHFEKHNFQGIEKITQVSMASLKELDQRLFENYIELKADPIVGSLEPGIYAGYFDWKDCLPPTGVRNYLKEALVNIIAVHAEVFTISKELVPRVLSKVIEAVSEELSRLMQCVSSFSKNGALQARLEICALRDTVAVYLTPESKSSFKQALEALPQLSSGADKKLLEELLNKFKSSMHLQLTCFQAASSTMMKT
UniProt Q86WV6: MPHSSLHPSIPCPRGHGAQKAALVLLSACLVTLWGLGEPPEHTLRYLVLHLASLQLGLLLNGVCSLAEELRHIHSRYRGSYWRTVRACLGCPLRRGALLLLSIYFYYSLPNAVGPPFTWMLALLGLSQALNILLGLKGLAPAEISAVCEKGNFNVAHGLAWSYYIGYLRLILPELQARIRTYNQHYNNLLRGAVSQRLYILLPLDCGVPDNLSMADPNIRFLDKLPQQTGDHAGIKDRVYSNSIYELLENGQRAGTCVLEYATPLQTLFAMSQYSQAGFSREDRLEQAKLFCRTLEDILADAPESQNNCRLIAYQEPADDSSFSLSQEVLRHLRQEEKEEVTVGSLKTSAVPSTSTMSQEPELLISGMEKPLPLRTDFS
UniProt Q6PF93: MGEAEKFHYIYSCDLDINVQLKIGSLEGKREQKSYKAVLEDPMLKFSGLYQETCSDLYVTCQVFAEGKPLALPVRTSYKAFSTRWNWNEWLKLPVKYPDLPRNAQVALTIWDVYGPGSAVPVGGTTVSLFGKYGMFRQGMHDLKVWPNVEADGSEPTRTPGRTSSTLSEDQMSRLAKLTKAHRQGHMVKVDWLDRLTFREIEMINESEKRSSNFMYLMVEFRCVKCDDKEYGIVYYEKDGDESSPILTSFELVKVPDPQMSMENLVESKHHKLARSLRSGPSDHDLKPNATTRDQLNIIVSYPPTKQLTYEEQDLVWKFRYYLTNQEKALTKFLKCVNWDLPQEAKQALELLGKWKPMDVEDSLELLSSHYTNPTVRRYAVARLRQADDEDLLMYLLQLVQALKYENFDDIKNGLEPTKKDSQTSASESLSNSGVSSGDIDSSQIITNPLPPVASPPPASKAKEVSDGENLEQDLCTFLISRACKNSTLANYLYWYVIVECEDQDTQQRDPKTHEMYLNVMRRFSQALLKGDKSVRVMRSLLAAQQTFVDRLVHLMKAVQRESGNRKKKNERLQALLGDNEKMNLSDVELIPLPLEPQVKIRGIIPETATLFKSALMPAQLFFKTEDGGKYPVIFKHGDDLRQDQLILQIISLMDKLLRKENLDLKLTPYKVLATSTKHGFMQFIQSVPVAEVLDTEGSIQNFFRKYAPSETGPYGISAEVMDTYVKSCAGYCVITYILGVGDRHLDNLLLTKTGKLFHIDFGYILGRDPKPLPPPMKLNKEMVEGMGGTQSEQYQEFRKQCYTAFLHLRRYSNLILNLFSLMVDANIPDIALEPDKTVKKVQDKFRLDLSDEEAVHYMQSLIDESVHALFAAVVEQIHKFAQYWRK

Legend:
Sec5 = Sec5 (UniProt Q96KP1); test: co-IP; HEK293 cells (2x10^6) transfected with the indicated plasmids (5 μg each) for 24 h (Fig 6E also with knockdown of SNX8); NP40 lysis buffer (20 mM Tris-HCl, 150 mM NaCl, 1 mM EDTA, 1% Nonidet P-40); indicated antibody or control IgG with Protein-G sepharose, at least 2 hr; washed three times with lysis buffer containing 500 mM NaCl; immunoblot
TRAPβ = target: T1, TRAPβ (UniProt P43308); test: as above
T1 sequence: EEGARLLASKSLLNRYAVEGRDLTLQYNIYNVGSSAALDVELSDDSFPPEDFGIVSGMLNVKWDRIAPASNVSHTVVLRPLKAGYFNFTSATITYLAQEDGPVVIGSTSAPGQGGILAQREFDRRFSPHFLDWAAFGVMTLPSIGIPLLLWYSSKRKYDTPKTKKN

[1] = target: T2, SNX8 (endogenous, mouse lung fibroblasts) (mouse (endogenous in MLFs)) (UniProt Q8CFD4); test: co-IP; endogenous co-immunoprecipitation from MLFs (3x10^7), un-infected or early after HSV-1 infection; NP40 lysis buffer; Protein-G sepharose; washes with 500 mM NaCl; immunoblot
T2 sequence: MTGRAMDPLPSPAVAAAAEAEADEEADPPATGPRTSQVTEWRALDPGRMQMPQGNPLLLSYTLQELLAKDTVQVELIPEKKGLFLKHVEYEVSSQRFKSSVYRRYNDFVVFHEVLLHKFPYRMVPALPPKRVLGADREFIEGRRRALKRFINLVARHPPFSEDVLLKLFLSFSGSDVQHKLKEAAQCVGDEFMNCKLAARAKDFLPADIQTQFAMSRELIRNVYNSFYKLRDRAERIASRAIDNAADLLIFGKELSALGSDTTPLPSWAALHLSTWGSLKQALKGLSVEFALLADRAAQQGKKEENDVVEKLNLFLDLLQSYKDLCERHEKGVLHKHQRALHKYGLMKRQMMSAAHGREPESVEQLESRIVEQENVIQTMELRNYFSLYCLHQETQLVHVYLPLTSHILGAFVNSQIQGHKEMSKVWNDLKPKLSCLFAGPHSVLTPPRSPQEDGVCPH

| Substance | binding (Sec5) | binding (TRAPβ) | binding [1] |
| --- | --- | --- | --- |
| MITA (also called STING, MPYS, ERIS, or TMEM173) (from UniProt Q86WV6 1-379) | binds | binds |  |
| VPS34 (endogenous, mouse lung fibroblasts) (from UniProt Q6PF93 1-887) (enzyme) |  |  | binds |
